# Measured values from PubChem BioAssay AID938 (National Center for Advancing Translational Sciences (NCATS), 2007).
# Hit rate of the full screen: of about 73,000 compounds, about 1,800 (2.5%) were called active. Inconclusive means that the source gave no clear call. Such entries were picked first, then a sample of the others. Calls follow the shape of the dose curve; as a rule, active = well fitted activation curve with a large enough effect; inconclusive = small, poorly fitted or top-dose-only effect; inactive = no such curve, though single readings can be large or run the other way. Potencies of inconclusive entries are left out as doubtful fits.
# Test: qHTS Assay for Agonists of the Thyroid Stimulating Hormone Receptor: Activators of Intracellular cAMP Concentrations in Parental HEK 293; also: nearly all actives have a fitted effect of over 55% in size; as to activation: % of control where 0% means no effect
# Settings: parental HEK293 CNG cAMP sensor, membrane potential fluorescence; activation: at 57.1 µM (top of the series) unless noted
# Summary of the method: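 Counterscreen for endogenous-receptor signalling: CNG-channel HEK 293 cells report cAMP rise by membrane depolarization. After 60 min dye equilibration with 100 uM RO 20-1724, compounds incubated 30 min before bottom-read fluorescence at 590 nm.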
# Potency is read from the fitted curve at half-maximal effect; tags tell the direction and shape of the fitted curve.
Compound,Potency,activation
Cc1cccc(NC(=O)CSc2nnc(-c3ccccc3)n2N)c1C,inactive,
N=c1sc2ccccc2n1CCS (tested in a mixture with another compound),,inactive: -9.26% [at 11.4 µM]
CN1CCN2c3ncccc3Cc3ccccc3C2C1 (centres undefined),"inconclusive [activator, partial curve]",
COCCn1c(=O)c(-c2ccc(Cl)cc2)nc2cnc(OC)nc21,inactive,
COc1ccc(-c2nnc3sc(-c4ccco4)nn23)cc1OC,inactive,
Cc1ccc(C(=O)NC(C)(COc2nonc2C)COc2nonc2C)cc1,"inconclusive [activator, partial curve]",
O=c1cnc2cncnc2n1Cc1ccc(F)cc1,"inconclusive [activator, partial curve]",
O=C(CCS(=O)(=O)c1ccc(Cl)cc1)N1CCN(S(=O)(=O)c2cccs2)CC1,"inconclusive [activator, single point]",
Cc1ccc(C)c(Cn2nnc3c(=O)[nH]c(C4CCCN(C(=O)C5CCC5)C4)nc32)c1 (centres undefined),"inconclusive [activator, single point]",
CCOC(=O)c1c(C)nc(-c2ccccc2)nc1NC(C)=O,inactive,
COc1ccc(Cc2nnc(SCC(=O)N3CCc4ccccc4C3)o2)cc1,"inconclusive [activator, single point]",
CC1=CC(C)(C)N2C(=O)C3(N=C(N)NC(Nc4ccccc4)=N3)c3cc(C)cc1c32 (centres undefined),inactive,
COc1ccccc1CCn1c(=O)c(-c2cc(F)cc(F)c2)nc2cncnc21,"inconclusive [activator, partial curve]",
O=c1[nH]c(=O)n(Cc2ccccc2)c2nc(-c3ccco3)cc(C(F)(F)F)c12,"inconclusive [activator, single point]",
CCn1c(SCC(=O)Nc2cccc(OC)c2)nnc1-c1ccc(Cl)cc1,"inconclusive [activator, partial curve]",
CC(C)(C)NC(=O)C(c1ccccn1)N(C(=O)c1ccc2c(c1)OCCO2)C1CCCC1 (centres undefined),"inconclusive [activator, partial curve]",
O=C(NCc1ccc(F)cc1)C1CCN(C(=O)NCc2ccccc2)CC1,active: 3.98 µM,
COCCn1c(=O)c(-c2ccc(OC)cc2)nc2cnc(Oc3ccccc3)nc21,"inconclusive [activator, single point]",
CC1Cc2ccccc2N1C(=O)CSc1nnc2sc3ccccc3n12 (centres undefined),"inconclusive [activator, single point]",
CCN1CCN(C(=O)c2cn(CCOC)c(=O)c3c2c2ccccc2n3C)CC1,"inconclusive [activator, single point]",
Fc1ccc(C(c2nnnn2C2CCCC2)N2CCN(Cc3ccccc3)CC2)cc1 (centres undefined),"inconclusive [activator, full curve]",
O=C1CN(C(=O)c2ccc(Br)o2)C(c2ccc(F)cc2)c2cc(Cl)ccc2N1 (centres undefined),"inconclusive [activator, partial curve]",
CSc1nc2ccc(NC(=O)C3CC(=O)N(Cc4ccco4)C3)cc2s1 (centres undefined),"inconclusive [activator, single point]",

Compound,Potency,activation
CN(C)S(=O)(=O)c1ccc2c(c1)C(CC(=O)O)OC2=O (centres undefined),"inconclusive [activator, single point]",
Cc1ccnc(NS(=O)(=O)c2ccc(N=[N+]=[N-])cc2)n1,,inactive: 10.9% [at 11.4 µM]
C=CCOc1ccc(C2N3CC4(CC)CN2CC(CC)(C3)C4=O)cc1 (centres undefined),"inconclusive [activator, partial curve, poor fit]",
CCNc1ncc2nc(CCc3ccccc3)c(=O)n(-c3ccc(OC)cc3)c2n1,"inconclusive [activator, full curve]",
Cc1ccccc1CNc1ncnc2c1ncn2[C@@H]1O[C@@H](CO)[C@H](O)[C@@H]1O,active: 7.94 µM,
CCOC(=O)C1=C(N)OC2=C(C(=O)CC(C)(C)C2)C1c1ccoc1 (centres undefined),active: 12.6 µM,
O=C(Nc1ccc(N2CCN(C(=O)c3ccccc3)CC2)cc1)c1ccc(Br)o1,inactive,
O=C(c1cnccn1)N1CCC[C@@]2(CCN(c3ccncc3)C2)C1,inactive,
COc1ccc(C(=O)N2CCN(c3nc4ccccc4o3)CC2)cc1OC,"inconclusive [activator, single point]",
CCOC(=O)Cc1csc(NC(=O)CN2C(=O)c3ccccc3S2(=O)=O)n1,"inconclusive [activator, single point]",
CCOC(=O)c1ccc2c(c1)N(Cc1ccccc1C)C(=O)c1ccccc1S2=O (centres undefined),"inconclusive [activator, partial curve]",
CCCCC/C=C/C=C/C=O,"inconclusive [activator, single point]",
c1cncc(CNc2cc(-c3ccoc3)ncn2)c1,inactive,
O=C(c1cc2ccccn2n1)N1CCN(c2cccc(C(F)(F)F)c2)CC1,"inconclusive [activator, full curve]",
CC(C)CN(CC(C)C)S(=O)(=O)N1CCC(C(=O)NC2CCCCCCC2)CC1,"inconclusive [activator, partial curve]",
Cc1cc(C(=O)CSc2nnc(-c3ccccc3F)o2)c(C)n1Cc1cccs1,"inconclusive [activator, single point]",
CC1CN(C(=O)c2cccs2)CCN1C(=O)c1cccs1 (centres undefined),active: 31.6 µM,
Cc1nc2ccc(S(=O)(=O)N(C)CC(=O)N3CCc4ccccc43)cc2s1,"inconclusive [activator, single point]",
Cc1cc(NC(=O)c2cc(-c3ccco3)on2)nn1Cc1ccc(Cl)cc1,"inconclusive [activator, single point]",
CC(=O)c1cc2c(cc1NC(=O)CN1CCOCC1)OCO2,"inconclusive [activator, full curve]",
O=C(CC12CC3CC(C1)CC(CC(=O)NC1=NCCS1)(C3)C2)NC1=NCCS1,"inconclusive [activator, partial curve]",
C=CCc1ccc(OCCCCCN2CCOCC2)c(OC)c1,"inconclusive [activator, partial curve]",
CC(C)Oc1ccc(-c2nn(-c3ccccc3)cc2/C=c2\sc3ncnn3c2=O)cc1,"inconclusive [activator, partial curve]",

Compound,Potency,activation
O=C(NC12CC3CC(CC(C3)C1)C2)c1ccccc1O,"inconclusive [activator, single point]",
CCOC(=O)c1cnc(-n2nc(C)cc2C)nc1Nc1ccc(N(C)C)cc1,inactive,
CCC(c1nnnn1C1CCCC1)N(Cc1cccs1)Cc1cc2cccc(C)c2[nH]c1=O (centres undefined),inactive,
O=S(=O)(Nc1ncn[nH]1)c1ccc2ccccc2c1,"inconclusive [activator, partial curve]",
O=C(Nc1nc(-c2cc(Cl)sc2Cl)cs1)c1cccs1,"inconclusive [activator, single point]",
CC(C)n1c(-c2ccco2)csc1=Nc1cccnc1,"inconclusive [activator, single point]",
CC(C)(C)OC(=O)NCCCCCc1nnc(SCC(=O)Nc2cccc(Cl)c2)o1,"inconclusive [activator, partial curve]",
Cc1cc(C(=O)CN2C(=O)C3CC=CCC3C2=O)c(C)n1-c1ccccc1 (centres undefined),inactive,
COc1ccc(NC(=O)N(CCCN(C)C)Cc2cc3cc(OC)ccc3[nH]c2=O)cc1,inactive,
COc1ccc(OC)c(NC(=O)CSC2=NCCS2)c1,"inconclusive [activator, single point]",
O=C1c2ccccc2NC(c2ccccn2)N1c1ccc(Cl)cc1 (centres undefined),"inconclusive [activator, partial curve]",
O=S(=O)(c1ccc(Oc2ccc(Br)cc2)cc1)N1CCOCC1,"inconclusive [activator, single point]",
Cc1c(/C=N/n2cnnc2)c2ccccc2n1CCOc1ccccc1,"inconclusive [activator, single point]",
CC(=Nc1ccc2c(c1)nc(CO)n2C)C1=C(O)CC(C)(C)CC1=O,inactive,
N#Cc1cn(-c2ccccc2)nc1-c1ccccc1,"inconclusive [activator, single point]",
C=CCN1C(=O)/C(=C2/Sc3ccccc3N2CCCS(=O)(=O)O)SC1=S,inactive,
COc1ccc(C(=O)N2CCC3(CC2)CCN(c2ccccn2)CC3)cc1,inactive,
COc1ccc2c(c1)c1nnc(SC)nc1n2C,"inconclusive [activator, full curve, poor fit]",
CCCCOc1cc(C)nc(NCc2ccccc2)n1,"inconclusive [activator, partial curve]",
CCc1cccc(OCCCCNCCOC)c1,inactive,
CC(C)[C@H](NC(=O)NCc1ccc(Cl)cc1)C(=O)O,"inconclusive [activator, single point]",
CCOC(=O)Cn1c(=O)c2c(nc(Br)n2Cc2ccc(Cl)cc2)n(C)c1=O,"inconclusive [activator, partial curve]",
COc1ccc(C)cc1N(C(=O)CNC(=O)c1ccco1)C(C(=O)NC1CCCC1)c1cccnc1 (centres undefined),"inconclusive [activator, partial curve]",
